The test system of the test is CEM cells HIV-1 protection, formazan growth assay. Description: NCI AIDS Antiviral Assay. As to conditions: for IC50: measured here: growth of uninfected CEM cells. Put shortly:
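Category rules: moderately active means at least 50% protection on retest, and confirmed active means 100% protection reproducibly. The underlying data came from a formazan growth assay in HIV-1-infected CEM cells.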

We go through 5 molecules from PubChem BioAssay AID179 (DTP/NCI, 2004).

Structures are written as SMILES. A number of entries come with more than one value. The other results are left out here.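 Rule for the calls: active = compounds giving half or more protection of infected cells from virus-caused growth loss, again on retest; inactive = the rest.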 An entry can have further records. Values given together are repeated measurements across runs, samples, wells, individuals or studies. Marks in square brackets tell the records apart. Letters hold for one entry only.

`NC1=C(Cl)C(=O)c2ccccc2C1=O`: the IC50 is 115 µM [sample A] and 11.5 µM [sample B]. Regarding `COc1ccc(NC(=S)N=Nc2c(O)[nH]c3ccccc23)cc1`, the IC50 is 4.27 µM [sample A] and 120 µM [sample B]. `CC(=O)c1c(O)c(C)c(O)c2c1OC1=CC(=O)C(C(C)=O)C(=O)C12C` (stereo not given): the IC50 was > 10.5 µM [sample A] and 11.5 µM [sample B] and > 200 µM [sample C]. As for `COc1nc(N)c(N=CC(OC(C)=O)C(OC(C)=O)C(COC(C)=O)OC(C)=O)c(=O)n1C` (stereo not given), the IC50 was > 200 µM, 141 µM, 170 µM, 174 µM, 182 µM [separate samples]. With `CC1=C/C(=C(\c2cc(C)c(O)c(C(=O)O)c2)c2c(Cl)ccc(S(=O)(=O)O)c2Cl)C=C(C(=O)O)C1=O`, the outcome was “active [sample A] and inactive [sample B]”.
